Each structure is given as a SMILES string. Among all 310,000 compounds or so, about 2,200 (0.71%) showed an effect of 50% or more. The effect is printed as a negative number. This is one part of the list.

The assay deals with human ether-à-go-go-related gene (hERG) potassium channel (human, UniProt Q12809). The experiment in a line: primary screen, population patch clamp on CHO cells stably expressing hERG.
Chain of human ether-à-go-go-related gene (hERG) potassium channel (Q12809 whole entry, looked up): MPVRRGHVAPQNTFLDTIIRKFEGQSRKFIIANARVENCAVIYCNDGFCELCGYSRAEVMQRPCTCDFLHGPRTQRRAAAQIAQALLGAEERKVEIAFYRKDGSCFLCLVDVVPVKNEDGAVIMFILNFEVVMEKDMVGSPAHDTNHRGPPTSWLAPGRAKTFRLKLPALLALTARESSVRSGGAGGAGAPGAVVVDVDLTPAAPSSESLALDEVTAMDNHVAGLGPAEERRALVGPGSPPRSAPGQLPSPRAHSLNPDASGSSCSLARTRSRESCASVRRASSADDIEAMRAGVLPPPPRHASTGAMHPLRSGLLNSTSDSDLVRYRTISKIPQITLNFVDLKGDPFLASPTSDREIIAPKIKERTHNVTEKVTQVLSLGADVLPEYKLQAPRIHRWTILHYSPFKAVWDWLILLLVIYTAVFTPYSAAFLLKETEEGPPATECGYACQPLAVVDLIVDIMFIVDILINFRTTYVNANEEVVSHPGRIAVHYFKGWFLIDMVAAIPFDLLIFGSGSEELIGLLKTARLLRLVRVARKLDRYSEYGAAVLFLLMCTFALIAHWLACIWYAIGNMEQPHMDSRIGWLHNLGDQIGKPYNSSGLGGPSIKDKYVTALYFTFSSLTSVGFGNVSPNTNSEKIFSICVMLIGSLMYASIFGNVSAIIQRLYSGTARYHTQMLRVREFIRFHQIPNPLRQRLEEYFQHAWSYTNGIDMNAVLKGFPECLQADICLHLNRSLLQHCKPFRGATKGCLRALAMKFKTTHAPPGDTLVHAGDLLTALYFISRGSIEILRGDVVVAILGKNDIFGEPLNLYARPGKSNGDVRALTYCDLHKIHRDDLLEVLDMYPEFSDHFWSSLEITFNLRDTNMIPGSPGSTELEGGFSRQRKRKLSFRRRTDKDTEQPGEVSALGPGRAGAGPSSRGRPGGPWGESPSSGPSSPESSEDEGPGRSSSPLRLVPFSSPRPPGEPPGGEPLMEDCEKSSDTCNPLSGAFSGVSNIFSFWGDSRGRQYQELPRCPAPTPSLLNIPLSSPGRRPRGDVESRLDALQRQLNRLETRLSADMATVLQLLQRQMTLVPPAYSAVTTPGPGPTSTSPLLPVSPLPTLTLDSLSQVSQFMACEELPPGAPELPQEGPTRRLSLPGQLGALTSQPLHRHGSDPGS
Turning to `COc1cc(NC(=O)c2cccs2)c(OC)cc1NC(=O)Nc1ccc(F)cc1`, the “hERG current change (%, negative = inhibition) at 1uM” value is listed as 16%.
In the case of `c1ccc(-c2nc3ccccc3c3nc4ccccc4n23)cc1`, the “hERG current change (%, negative = inhibition) at 1uM” value came out at 8.33%.
The same measure for `O=C(CCC(=O)c1cccs1)NCC(=O)Nc1ccc(F)c(F)c1F`: 7.77%; for `CCCCc1cc(=O)oc2cc(OCC(=O)NC3CCN(Cc4ccccc4)CC3)ccc12`: -41.7%.
In the case of `Cc1c(C2C(C#N)=C(N)OC3=C2C(=O)CCC3)cnn1C` (centres unmarked), the “hERG current change (%, negative = inhibition) at 1uM” value is reported as 11.3%.
The same measure for `COc1ccc(N2CC(C(=O)N[C@@H](C)C(=O)NC3CCCCC3)CC2=O)cc1` (some centres unmarked): 18.3%.
Consider `COc1ccc(NC(=O)C2CCCN(S(C)(=O)=O)C2)cc1` (centres unmarked), for which the “hERG current change (%, negative = inhibition) at 1uM” value was 19.7%.
The same measure for `COc1cc(C(=O)NC(=S)NC(C)C)cc(OC)c1OC`: -1.13%.
For `COc1cc(C(=O)N2CCC(N3CCCCCC3)CC2)cc(OC)c1OC.O=C(O)C(=O)O` the value was 8.18%; for `O=C(CCN1C(=O)c2ccc([N+](=O)[O-])cc2C1=O)Nc1ccc(O)cc1C(=O)O`, 30%.
The same measure for `Cc1cccc(NS(=O)(=O)c2cccs2)n1`: 17.6%.
With `Cc1ccc(NC(=S)N(Cc2cccc(Br)c2)CC2CCC(C(=O)O)CC2)cc1Cl` (centres unmarked), the “hERG current change (%, negative = inhibition) at 1uM” value is on record as -7.65%.
The same measure for `Cc1ccc(NC(=O)c2cnccn2)cc1S(=O)(=O)N(C)C`: 17%; for `CCC(C(=O)NCCN1CCOCC1)n1c2ccccc2c2nc(=O)cc(C)n21` (centres unmarked): 21.6%; for `COc1ccc(CCNC(=O)COc2ccc(N(C)S(=O)(=O)c3ccc(C)cc3)cc2)cc1OC`: -5.06%.
The same measure for `CCN1CCN(CCCNC(=O)c2ccc(/C=C3/Sc4ccccc4N(Cc4ccccc4F)C3=O)cc2)CC1`: 5.98%.
For `COC(=O)C1=C(C)N(C)C(C)=C(C(=O)OC)C1c1cccc(Br)c1` the value was 5.09%; for `CN(C)CCN(CC1CCCN(Cc2ccccc2F)C1)C(=O)Cc1ccccc1F` (centres unmarked), 10.1%.
For the compound `COc1ccccc1NC(=O)Cc1nnc(SCC(=O)c2ccccc2)n1C`, the “hERG current change (%, negative = inhibition) at 1uM” value worked out at 14.2%.
For `CC(=O)Nc1cccc(/C(C)=N/NC(=O)c2cccc(S(=O)(=O)N3CCOCC3)c2)c1` the value was 4.66%; for `COc1ccc(NC(=O)C2C3C=CC(O3)C2C(=O)NCc2cccnc2)cc1` (centres unmarked), 2.8%.
The same measure for `COC(=O)c1ccc(NC(=O)CCN2CCN(Cc3ccccc3)CC2)cc1`: -16.9%; for `O=C(O)c1cnc(-c2ccccc2)nc1C(F)(F)F`: 18.5%.
For `COc1ccc(-c2ccc(/C=C3\C(=O)N(c4ccccc4)N=C3c3ccccc3)o2)c([N+](=O)[O-])c1` the value was 15.3%; for `CC(C)(C)SCCNS(=O)(=O)c1ccc(C#N)cc1`, 9.46%.
For `O=C(COC(=O)c1ccccc1)NC12CC3CC(CC(C3)C1)C2`, the “hERG current change (%, negative = inhibition) at 1uM” value is 14.2%.
The same measure for `O=C(C[N+]1(CC#Cc2ccccc2)CCCCC1)c1ccc(Cl)cc1.[Br-]`: 12.5%; for `CS(=O)(=O)c1ccc(Cl)c(NC(=O)COC(=O)C23CC4CC(CC(C4)C2)C3)c1`: 4.37%; for `Cc1cccc2sc(N(CCCN(C)C)C(=O)c3sc4ccccc4c3Cl)nc12.Cl`: 1.41%.
For `COc1ccccc1NC(=O)c1ccc(C(=O)c2ccccc2)o1` the value was -7.07%; for `COC(=O)c1cn(-c2ccc(Cl)cc2)c(=O)c2ccccc12`, 4.32%; for `CCc1cc(=O)oc2cc(C)cc(OC(=O)c3ccco3)c12`, 19.4%.
The same measure for `c1ccc(-c2ccnc3nc(-n4cccc4)nn23)cc1`: 19%.
Consider `CCCCn1nnnc1SCC(=O)NCc1ccccc1`, for which the “hERG current change (%, negative = inhibition) at 1uM” value came out at 6.53%.
The same measure for `COc1ccc(Cl)cc1C(=O)NNC(=S)NC(=O)c1ccc(F)c(F)c1`: 9.17%.
The same measure for `O=C(O)c1ccc(/C=C2\SC(=S)N(NC(=O)c3ccccc3[N+](=O)[O-])C2=O)cc1`: 8.05%; for `COc1ccc(OC)c(NC(=O)c2cc(-c3c(C)cc(C)cc3O)n[nH]2)c1`: 29.5%; for `O=S(=O)(Nc1ccc(Br)cc1)c1cccc(NC(=S)NCCN2CCOCC2)c1`: 12.1%.
For `CC(C)Cc1ccc(CN2CCCC(NC(=O)c3ccoc3)C2)cc1` (centres unmarked) the value was -7.26%; for `CCOC(=O)Cc1[nH]nc2c1C(c1cccc(OC)c1OC)C(C#N)=C(N)O2` (centres unmarked), 4.15%.
`Cc1occc1C(=O)N1CCCC(Nc2ccc(C(C)C)cc2)C1` (centres unmarked): the “hERG current change (%, negative = inhibition) at 1uM” value was found to be 13.3%.
Turning to `Cc1noc(/C=C/c2ccco2)c1S(=O)(=O)N1CCC(C(=O)NCc2ccco2)CC1`, the “hERG current change (%, negative = inhibition) at 1uM” value is listed as -1.4%.
As to `CC1(c2nnc(-c3cccc(Cl)c3)o2)CC(c2ccc(Cl)cc2)=NO1` (centres unmarked), the “hERG current change (%, negative = inhibition) at 1uM” value was 17%.
On to `Cc1c(CCC(=O)O)c(=O)oc2cc(OCc3ccc(Br)cc3)ccc12`, for which the “hERG current change (%, negative = inhibition) at 1uM” value was 6.19%.
For `CC(=O)N1CCN(S(=O)(=O)c2ccc(C)cc2)C1C` (centres unmarked), the “hERG current change (%, negative = inhibition) at 1uM” value is reported as 8.95%.
For `Cc1ccccc1OCC(O)CNC1CCCC1.Cl` (centres unmarked) the value was 11.4%; for `COc1ccc(NC(=O)CN2CCN(c3ccccc3)CC2)cc1`, 3.56%; for `Cc1cc(-c2nnc(SCC(=O)Nc3cccc(F)c3)n2N)n[nH]1`, 7%.
The same measure for `CCSc1nc(C)nc2sc(C)c(C)c12`: 11.6%; for `O=C(O)c1ccccn1`: 1.43%.
The same measure for `O=C(NCC(=O)N1CCN(c2ncccn2)CC1)c1ccc(F)cc1`: 0.59%.
For the compound `CCc1cccc(C)c1NC(=O)CSc1nnc(Cc2csc(C)n2)o1`, the “hERG current change (%, negative = inhibition) at 1uM” value is 1.18%.
The same measure for `COc1ccc(/C=N/N2CCOCC2)cc1COc1ccc(Cl)cc1`: 10.3%.
Turning to `O=C(Nc1ccccc1N1CCOCC1)c1ccccc1NS(=O)(=O)c1ccc(F)c(F)c1`, the “hERG current change (%, negative = inhibition) at 1uM” value is 6.53%.
The same measure for `Cc1ccc(NC(=O)CCN2C(=O)NC3(CCCC3)C2=O)cc1S(=O)(=O)N1CCOCC1`: 3.22%.
Turning to `O/N=C/c1ccccc1OCc1ccc(Cl)cc1`, the “hERG current change (%, negative = inhibition) at 1uM” value is on record as 10.1%.
For `Cn1c(CNc2nc3ccccc3n2C)nc2ccccc21` the value was -2.58%.
Regarding `O=C(NC1CCCCCC1)C1C2C=CC3(CN(Cc4cccnc4)C(=O)C13)O2` (centres unmarked), the “hERG current change (%, negative = inhibition) at 1uM” value was determined as 6.42%.
In the case of `COc1ccc(Cc2nnc(NC(=O)CSc3ccccc3)s2)cc1`, the “hERG current change (%, negative = inhibition) at 1uM” value is 16.1%.
For `COc1ccc(-n2cc3c(-c4cccc(Br)c4)nnc(C)c3n2)cc1` the value was 7.35%; for `CCCCN(C(=O)C1CC(=O)N(c2ccc(OC)cc2OC)C1)c1c(N)n(CC(C)C)c(=O)[nH]c1=O` (centres unmarked), 14.6%; for `CCOC(=O)C(/C=N/c1cc(C)nn1-c1ccccc1)=C(\C)O`, 14%.
The same measure for `COC(=O)[C@]12C(=O)C(C)=C(O)[C@@]1(C)C(C)=CC1[C@@]34CC[C@@H](OC(C)=O)C(C)(C)C3C(C[C@]12C)OC4=O` (some centres unmarked): 7.57%.
As to `CC(=O)NC12CC3CC(C1)CC(C(=O)N1CCN(S(=O)(=O)c4ccc(Cl)s4)CC1)(C3)C2`, the “hERG current change (%, negative = inhibition) at 1uM” value is -0.504%.
For `Cc1cc(C)nc(NC2=NCC(=O)N2c2ccccc2Br)n1` the value was 13%; for `Cc1ccc(NC(=O)C2CC(c3ccc(F)cc3)=NO2)cc1` (centres unmarked), 18.6%.
The same measure for `CN1CCN(c2nc3c(c(=O)n(C)c(=O)n3C)n2CCSc2nc3ccccc3s2)CC1`: 9.38%; for `Cc1ccc(CSc2nnc(-c3cccnc3)n2N)cc1`: 16%; for `Cc1ccc(S(=O)(=O)N(C)C)cc1NC(=O)C1CCC1`: 14.6%.
As for `Cc1ccn2cc(C(=O)N3CCCC(Nc4ccc(F)cc4)C3)nc2c1` (centres unmarked), the “hERG current change (%, negative = inhibition) at 1uM” value is 7.29%.
On to `COc1ccc(N(CC(=O)N2CCCCCC2)S(C)(=O)=O)cc1Cl`, for which the “hERG current change (%, negative = inhibition) at 1uM” value was determined as 14.2%.
The same measure for `Cc1ccc(S(=O)(=O)Cc2ccc(C(=O)OCc3ccccc3)cc2)cc1`: 1.1%.
The same measure for `Br.CCN1CCN(CC(=O)c2ccc(OC)cc2)CC1`: 7.58%; for `O=C(CSc1cccc[n+]1[O-])Nc1ccc(C(F)(F)F)cc1[N+](=O)[O-]`: 10.2%; for `C=CCOc1ccc(/C=N/NC(=O)c2cc3c(OC)cc(OC)cc3[nH]2)cc1`: 15.5%.
`C/C=C/c1ccc(OCCOc2cc(C=O)ccc2OC)c(OC)c1`: the “hERG current change (%, negative = inhibition) at 1uM” value came to 16.5%.
The same measure for `COc1ccc(CNC(=O)CN(C(=O)c2csnn2)c2ccc(C(C)=O)cc2)cc1`: 3.03%.
The same measure for `CC1(C)CC(NC(=O)Nc2ccc([N+](=O)[O-])cc2)CC(C)(C)N1`: 1.68%.
The same measure for `O=C(Nc1ccc(S(=O)(=O)N2CCc3ccccc3C2)cc1)c1ccccc1`: 4.74%; for `Cc1ccc(S(=O)(=O)N(C)C)cc1NC(=O)CSc1ncc(C(F)(F)F)cc1Cl`: -10.5%; for `COc1ccc(-c2cc(-c3ccccc3)nc(NN)n2)cc1OC`: 7.38%.
For `COC(=O)c1cc(NCc2cccs2)ccc1N1CCOCC1`, the “hERG current change (%, negative = inhibition) at 1uM” value was 10.4%.
In the case of `CC1CN(C(=O)CSc2nc(-c3ccccc3)cs2)CC(C)O1` (centres unmarked), the “hERG current change (%, negative = inhibition) at 1uM” value is given as 13.2%.
On to `O=C(Nc1ccc(S(=O)(=O)N2CCCCC2)cc1)c1ccccc1F`, for which the “hERG current change (%, negative = inhibition) at 1uM” value was determined as 11.6%.
With `C=CC[n+]1c(/C=C/c2ccc(OC(C)=O)c(OC)c2)ccc2ccccc21.[Cl-]`, the “hERG current change (%, negative = inhibition) at 1uM” value is recorded as -0.584%.
For `Cc1ccc(-c2noc(CSc3nnnn3C3CCCCC3)n2)cc1` the value was 10%.

These data come from paper PMC4336329 (PLoS ONE, 2015).
